Target: T1, CD3εδ complex protein (human; alpaca, UniProt P07766 23-126; P04234 22-105)
T1 construct: they are not part of the secreted protein; also called human CD3; CD386 complex protein
Experiment: ELISA, CD3 complex immobilized; average of several plates
Experimental: Binding activities of the anti-TSPAN8/anti-CD3 bispecific antibodies BTE-0001 to BTE-0067 to CD3 were evaluated by the ELISA. ELISA was performed according to a conventional method. The […] complex protein obtained in Example 1-3 was immobilized on a plate. BTE-0001 to BTE-0067 were used as the test antibodies. As a secondary antibody, Goat anti-Human IgG Fc, Multi-Species SP ads-HRP (2014-05, available from SouthernBiotech) was used. TMB+Substrate-Chromogen (S1599, available from Dako) was used as the detection reagent. Infinite M200pro (available from Tecan) was used to measure the absorbance. The EC50 values were calculated using variable slope model (four parameters) in GraphPad Prism with the maximum value in the same plate fixed at the top and the minimum value in the blank in the same plate fixed at the bottom. Since BTE-0001 was always measured in each plate as a control, only the EC50 value of BTE-0001 was expressed as the average value of a plurality of plates.

Chain of UniProt P07766 (P07766 23-126 limits assumed, stated change not applied, form in doubt, chain 1 of 2): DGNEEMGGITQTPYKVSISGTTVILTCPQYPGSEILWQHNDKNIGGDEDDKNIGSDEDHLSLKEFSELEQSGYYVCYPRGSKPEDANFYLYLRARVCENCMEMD
Chain of UniProt P07766 (P04234 22-105 limits assumed, stated change not applied, form in doubt, chain 2 of 2, further chain): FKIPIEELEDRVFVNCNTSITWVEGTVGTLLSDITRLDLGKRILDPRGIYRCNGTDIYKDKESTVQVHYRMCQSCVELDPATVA

B1: BTE-0001 (bispecific antibody, human IgG1, kappa, L234A L235A, N297G)
heavy: QVQLVESGGGVVQPGGSLRLSCAASGFTFSSYGMHWVRQAPGKGLEWVAVIWYDGRNKYYADSVKGRFTISRDNSKNTLYLQMNSLRAEDTAVYYCTRDHSGSGSYYIDYWGQGTLVTVSSASTKGPSVFPLAPSSKSTSGGTAALGCLVKDYFPEPVTVSWNSGALTSGVHTFPAVLQSSGLYSLSSVVTVPSSSLGTQTYICNVNHKPSNTKVDKKVEPKSCDKTHTCPPCPAPEAAGGPSVFLFPPKPKDTLMISRTPEVTCVVVDVSHEDPEVKFNWYVDGVEVHNAKTKPREEQYGSTYRVVSVLTVLHQDWLNGKEYKCKVSNKALPAPIEKTISKAKGQPREPQVYTLPPSRDELTKNQVSLSCAVKGFYPSDIAVEWESNGQPENNYKTTPPVLDSDGSFFLVSKLTVDKSRWQQGNVFSCSVMHEALHNHYTQKSLSLSPGK
light: EIAMTQSPATLSVSPGERATLSCRASQSVSSNLAWYQQKPGQAPRLLIYGASTRATGLPARFSGSGSGTEFTLTISSLQSEDFAVYYCQQYNNFWTFGQGTKVEIKRTVAAPSVFIFPPSDEQLKSGTASVVCLLNNFYPREAKVQWKVDNALQSGNSQESVTEQDSKDSTYSLSSTLTLSKADYEKHKVYACEVTHQGLSSPVTKSFNRGEC
scFv: EVQLVESGGGLIQPGGSLRLSCAASGFTFNTYAMNWVRQAPGKGLEWVARIRSKYNNYATYYADSVKDRFTISRDDSKSTLYLQMNNLRAEDTAVYYCVRHGNFGNSYVSWFAYWGQGTLVTVSSGKPGSGKPGSGKPGSGKPGSQAVVTQEPSLTVSPGGTVTLTCRSSTGAVTTSNYANWVQQKPGQAPRGLIGGTNKRAPGTPARFSGSLLGDKAALTLSGAQPEDEAEYYCALWYSNLWVFGGGTKVTVL[human IgG1 Fc with C220S L234A L235A N297G T366W (EU numbers) cut from this listing]
notes: anti-TSPAN8 heavy chain (Fab-Fc) + light chain + anti-CD3 scFv-Fc; vectors ApiD00067, ApiD00068, ApiD00000; also called anti-TSPAN8/anti-CD3 bispecific antibody containing anti-CD3 scFv before modification
- EC50: 6.52 ng/mL

Reference: US20250304706A1 (Astellas, published 2025)
